Data: patent US20260234738A1

Each binder was assayed against UNMODIFIED-SARS-CoV-2 Spike Protein (RBD)(R319-F541).mmH (SARS-CoV-2) (assay: Luminex bead binding, antibody supernatant). Conditions: remark: other sources report otherwise.

Binder	binding signal (MFI)
mAb10985 (antibody) heavy: EVQLVESGGGLVQPGRSLRLSCAASGFTFDDYAMHWVRQAPGKGLEWVSGISWNRGSIGYADSVKGRFTISRDNAKNSLYLQMSSLRAEDTALYYCAKDGERWDSVVVPSARNGMDVWGQGTTVTVSS[human IgG1 constant region left out] light: QSVLTQPPSVSGAPGQRVTISCTGSSSNIGAGYDVHWYQQLPGTAPKLLIYGNSNRPSGVPDRFSGSKSGTSASLAITGLQAEDEADYYCQSYDSSLSGSYVFGTGTKVTVLGQPKAAPSVTLFPPSSEELQANKATLVCLISDFYPGAVTVAWKADSSPVKAGVETTTPSKQSNNKYAASSYLSLTPEQWKSHRSYSCQVTHEGSTVEKTVAPTECS	27400 MFI
mAb10982 (antibody) heavy: EVQLVESGGGLVQPGGSLRLSCAASGLTVSSNYMSWVRQAPGKGLEWVSVIYSGGTTYYADSVKGRFTISRHNSKNTLSLQMNSLRAEDTAVYYCARGEGANYYGMDVWGQGTTVTVSS[human IgG1 constant region left out] light: QSVLTQPPSVSGAPGQRVTISCTGSSSNIGTGYDVHWYQQLPGTAPKLLIYGNSNRPSGVPDRFSGSKSGTSASLAITGLQAEDEADYYCQSYDSSLSGYVVFGGGTKLTVLGQPKAAPSVTLFPPSSEELQANKATLVCLISDFYPGAVTVAWKADSSPVKAGVETTTPSKQSNNKYAASSYLSLTPEQWKSHRSYSCQVTHEGSTVEKTVAPTECS	27500 MFI
mAb10965 (antibody) heavy: EVQLVESGGGLIQPGGSLRLSCAASVFTVSYNYMSWVRQAPGKGLEWVSVIYSGGSTYYADSVKGRFTISRDNSKNTLYLQMNSLRAEDTAVYYCARALPGWGGSFEYFDYWGQGTLVTVSS[human IgG1 constant region left out] light: [about 100 residues left out][about 100 residues left out]	28100 MFI
mAb10915 (antibody) heavy: EVQLVESGGGLVQPGGSLRLSCAASGFTVSSNYMNWVRQAPGKGLEWVSVIYSGGSTFYADSVKGRFTISRHNSKNTLYLQMNSLRPEDTAVYYCARDLGGYFDYWGQGTLVTVSS[human IgG1 constant region left out] light: [about 100 residues left out][about 120 residues left out]	36700 MFI
mAb10939 (antibody) heavy: EVQLVESGGGLVQPGGSLRLSCAASGLTVSSNYMNWVRQVPGKGLEWVSVIYSGGSKFYVDSVKGRFTISRHNSKNTLYLQMNSLRPEDTAVYYCTRDAQYYGMDVWGQGTTVTVSS[human IgG1 constant region left out] light: DIQMTQSPSSLSASVGDRVTITCRASQSISTYLHWYQQKPGEAPKLLIYAASSLQSGVPSRFSGSGSGTDFTLTISSLQPEDFATYYCQQSYSTPPEIFGQGTKLEIKRTVAAPSVFIFPPSDEQLKSGTASVVCLLNNFYPREAKVQWKVDNALQSGNSQESVTEQDSKDSTYSLSSTLTLSKADYEKHKVYACEVTHQGLSSPVTKSFNRGEC	33600 MFI
mAb10998 (antibody) heavy: EVQLVESGGGLVHPGGSLRLSCAASGLTVSSNYMSWVRQAPGKGLEWVSVIYSGGSTYYADSVKGRFTISRHNSKNTLFLQMNSLRAEDTAVYYCARDRPITGTTLDVWGQGTTVTVSS[human IgG1 constant region left out] light: DIQMTQSPSSLFASVGDRVTITCRASQSISSYLNWYQQKPGKAPKLLIYAASSLQSGVPSRFSGSGSGTDFTLTISSLQPEDFAFYYCQQTYSTPPITFGQGTRLEIKRTVAAPSVFIFPPSDEQLKSGTASVVCLLNNFYPREAKVQWKVDNALQSGNSQESVTEQDSKDSTYSLSSTLTLSKADYEKHKVYACEVTHQGLSSPVTKSFNRGEC	2560 MFI
mAb11006 (antibody) heavy: EVQLVESGGGLVQPGGSLRLSCAASGFIVSRNYMSWVRQAPGKGLEWVSVIYSGGSTFYADSVKGRFTISRHNSKNTLYLQMNSLKAEDTAVYYCARELRGYFDYWGQGTLVTVSS[human IgG1 constant region left out] light: DIQLTQSPSFLSASVGDRVTITCWASQGISSYLAWYQQKPGKAPKLLIYAASTLQSGVPSRFSGSGSGTEFTLTISSLQPEDFATYYCQLLNSYPYTFGQGTKLEIKRTVAAPSVFIFPPSDEQLKSGTASVVCLLNNFYPREAKVQWKVDNALQSGNSQESVTEQDSKDSTYSLSSTLTLSKADYEKHKVYACEVTHQGLSSPVTKSFNRGEC	2040 MFI
mAb11008 (antibody) heavy: EVQLVESGGGLVQPGGSLRLSCAASGFTVSSNYMTWVRQAPGKGLEWVSVIYSGGSTFYADSVKGRFTISRHNSENTLYLQMNSLRAEDTAVYYCARDLAAAGTDYWGQGALVTVSS[human IgG1 constant region left out] light: DIQLTQSPSFLSASVGDRVTITCWASQGISSYLAWYQQKPGKAPKLLIYAASTLQSGVPSRFSGSGSGTEFTLTISSLQPDDFATYYCQHLNSYLYTFGQGTKLEIKRTVAAPSVFIFPPSDEQLKSGTASVVCLLNNFYPREAKVQWKVDNALQSGNSQESVTEQDSKDSTYSLSSTLTLSKADYEKHKVYACEVTHQGLSSPVTKSFNRGEC	7100 MFI
mAb10984 (antibody) heavy: EVQLVESGGGLVQPGGSLRLSCAASGLTVNRNYMSWVRQAPGKGLEWVSLIYSGGSTYYADSVKGRFTISRDNSKNTLYLQMNSLRLEDTAVYYCARGELGIPYGMDVWGQGTTVTVSS[human IgG1 constant region left out] light: QSVLTQPPSVSAAPGQKVTISCSGSSSNIGNNYVSWYQQLPGTAPKLLIYDNNKRPSGIPDRFSGSKSGTSATLGITGLQTGDEADYYCGTWDSSLSAGVFGGGTKLTVLGQPKAAPSVTLFPPSSEELQANKATLVCLISDFYPGAVTVAWKADSSPVKAGVETTTPSKQSNNKYAASSYLSLTPEQWKSHRSYSCQVTHEGSTVEKTVAPTECS	25800 MFI
mAb10971 (antibody) heavy: EVQLVESGGGLIQPGGSLRLSCAASGVTVSSNYMSWVRQAPGKGLEWVSVIYSGGSTFYSDSVKGRFSISRDNSKNTLYLQMNSLRAEDTAVYYCARDLYYYGMDVWGQGTTVTVSS[human IgG1 constant region left out] light: DIQLTQSPSFLSASVGDRVTITCRASQGISTYLAWYQQKPGKAPKLLIYAASTLQSGVPSRFSGSGSGTEFTLTISSLQPEDFATYYCQQLDSYPGLTFGGGTKVEIKRTVAAPSVFIFPPSDEQLKSGTASVVCLLNNFYPREAKVQWKVDNALQSGNSQESVTEQDSKDSTYSLSSTLTLSKADYEKHKVYACEVTHQGLSSPVTKSFNRGEC	27400 MFI
mAb10989 (antibody) heavy: QVQLVQSGAEVKKPGASVKVSCKASGYIFTGYYMHWVRQAPGQGLEWMGWINPNSGGANYAQKFQGRVTLTRDTSITTVYMELSRLRFDDTAVYYCARGSRYDWNQNNWFDPWGQGTLVTVSS[human IgG1 constant region left out] light: QSALTQPASVSGSPGQSITISCTGTSSDVGTYNYVSWYQQHPGKAPKLMIFDVSNRPSGVSDRFSGSKSGNTASLTISGLQAEDEADYYCSSFTTSSTVVFGGGTKLTVLGQPKAAPSVTLFPPSSEELQANKATLVCLISDFYPGAVTVAWKADSSPVKAGVETTTPSKQSNNKYAASSYLSLTPEQWKSHRSYSCQVTHEGSTVEKTVAPTECS	19700 MFI
